# Reference: PubChem BioAssay AID463173 (ICCB-Longwood Screening Facility, Harvard Medical School, 2010)
# The campaign covered roughly 52,000 compounds. About 4,300 (8.3%) were called active. No stated cut-off is given here; in the data, active means survival mostly below about 52% (no sharp cut-off); inactive means mostly above about 56%. The list shows a part of the results.
# Tested on: DeltatarO mutant
# Test: growth inhibition of S. aureus wild type versus tarO mutant, primary screen, teichoic acid synthesis inhibitors, RN4220, OD600 (AID 463173)
# Conditions: OD600, 18 h, hits give low values, screened at 18.75 µg/mL (by protocol)
row,Structure (SMILES),survival
1,COc1ccccc1NC(=O)C1=C(C)Nc2nc(SCc3ccc(Cl)cc3)nn2C1c1ccccc1Cl (stereo not given),inactive: 78%
2,Cc1cccc(C)c1NC(=O)CSc1nc2ncccc2o1,inactive: 79%
3,Cc1ccc(S(=O)(=O)NCC(c2ccc(N(C)C)cc2)N2CCc3ccccc32)cc1C (stereo not given),inactive: 131%
4,CC(=O)N1CCc2cc(CNC(=O)Nc3cc(Cl)ccc3C)ccc21,inactive: 86%
5,COc1ccc(Cn2c(CCC(=O)Nc3cccc(OC)c3)nc3cccnc32)cc1,inactive: 68%
6,CCc1ccc(CNC(=O)C2CCN(c3nc4ccccc4nc3C(F)(F)F)CC2)cc1,inactive: 74%
7,COC(=O)Cc1c(C)c2cc3c(c(C)c2oc1=O)OCN(CCc1ccccc1F)C3,inactive: 47%
8,CCN1C(=O)c2ccccc2Sc2ccc(NC(=O)Nc3ccccc3OC)cc21,inactive: 61%
9,Cc1ccc(NC(=O)c2c(NC(=O)Cc3ccccc3)sc3c2CCC3)cc1,active: 24%
10,O=C(O)c1ccc(NC(=O)C2C3C=CC(C3)C2C(=O)O)cc1 (stereo not given),inactive: 95%
11,COc1ccccc1CNC(=O)CCC1N=C2c3ccccc3N=C(SCC(N)=O)N2C1=O (stereo not given),inactive: 95%
12,CC1CCCCN1CCCNC(=O)c1[nH]c2ccccc2c1Sc1ccc(Cl)cc1 (stereo not given),active: 1%
13,Fc1ccccc1-n1ncc2c1ncn1nc(-c3ccccc3Cl)nc21,inactive: 79%
14,Cc1cccc(CNC(=O)C(=O)Nc2ccccc2C)c1,inactive: 70%
15,Cc1ccc(CNC(=O)c2ccc(CSCc3ccccc3Cl)o2)cc1,inactive: 58%
16,Cc1cc2c(cc1S(=O)(=O)CCC(=O)N1CCCC(C)C1)OCC(=O)N2 (stereo not given),inactive: 76%
17,CCCCN(CCCNC(=O)c1ccc(Sc2ccc(Cl)cc2)c(NC(C)=O)c1)c1ccccc1,inactive: 89%
18,Cc1ccc(NC(=O)CSC2=Nc3ccccc3C3=NC(Cc4ccccc4)C(=O)N23)cc1C (stereo not given),inactive: 74%
19,C=CCc1c(NCCO)nc(C)[nH]c1=O,inactive: 73%
20,Cc1ccc(-n2ncc(C(=O)NCCN3CCOCC3)c2C2CCN(C(=O)OC(C)(C)C)CC2)c(C)c1,active: 37%
21,COCCn1c(CCC(=O)Nc2ccc(C)c(Cl)c2)nc2cccnc21,inactive: 84%
22,Cc1c(Cl)cccc1NC(=O)Cn1cc(C(=O)C2CCCCC2)c2ccccc21,inactive: 94%
23,CCSc1ncc(Cl)c(C(=O)Nc2ccc(S(=O)(=O)N3CCC(C)CC3)cc2)n1,inactive: 68%
24,Clc1ccc2nc(NCc3ccccc3)c3nncn3c2c1,inactive: 96%
25,COc1ccc2cc(-c3nc(Cl)c4c5c(sc4n3)CCCC5)c(=O)oc2c1,inactive: 76%
